# The supplement of paper PMC8728848
# This is one part of the list.
# B1: SefD (Salmonella enterica), Q9L6K6 (protein)
# chain: GAYIIRGQNNSAHKLRIRIGGEDWQPDNSGIGMVSHSDFTNEFNIYYFGNGDIPVDTYLISIYATEIEL
# Legend:
# Experiment in all cases: glycan array binding signal (z-score within array); higher = stronger binding
# Conditions in all cases: glycan notation: IUPAC condensed, linker removed
# [1] = biological target: Fuc(a1-2)Gal(b1-4)[Fuc(a1-3)]GlcNAc
# Method in brief: (§1)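 The binding signal is a Z-score computed within each array. Data were drawn from 3228 arrays in the Consortium for Functional Glycomics database, restricted to those with a known protein sequence. Scores were averaged over arrays of the same protein sequence at different concentrations or buffers, and over linkers, and negative values can be taken as non-binding.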
# [2] = biological target: Fuc(a1-2)Gal(b1-4)[Fuc(a1-3)]GlcNAc(b1-2)Man(a1-3)[Fuc(a1-2)Gal(b1-4)[Fuc(a1-3)]GlcNAc(b1-2)Man(a1-6)]Man(b1-4)GlcNAc(b1-4)GlcNAc
# Method in brief: as §1
# [3] = biological target: Fuc(a1-2)Gal(b1-4)[Fuc(a1-3)]GlcNAc(b1-2)[Fuc(a1-2)Gal(b1-4)[Fuc(a1-3)]GlcNAc(b1-4)]Man(a1-3)[Fuc(a1-2)Gal(b1-4)[Fuc(a1-3)]GlcNAc(b1-2)Man(a1-6)]Man(b1-4)GlcNAc(b1-4)GlcNAc
# Method in brief: as §1
# [4] = biological target: Fuc(a1-2)Gal(b1-4)[Fuc(a1-3)]GlcNAc(b1-3)Gal(b1-4)[Fuc(a1-3)]GlcNAc
# Method in brief: as §1
# [5] = biological target: Fuc(a1-2)Gal(b1-4)[Fuc(a1-3)]GlcNAc(b1-3)Gal(b1-4)[Fuc(a1-3)]GlcNAc(b1-3)Gal(b1-4)[Fuc(a1-3)]GlcNAc
# Method in brief: as §1
# [6] = biological target: Fuc(a1-2)Gal(b1-4)[Fuc(a1-3)]GlcNAc(b1-3)GalNAc
# Method in brief: as §1
# Fuc(a1-2)Gal6S(b1-4)Glc = biological target: Fuc(a1-2)Gal6S(b1-4)Glc
# Method in brief: as §1
# [7] = biological target: Fuc(a1-2)Gal6S(b1-4)Glc6S
# Method in brief: as §1
# [8] = biological target: Fuc(a1-2)Gal6S(b1-4)GlcNAc
# Method in brief: as §1
# Fuc(a1-2)[Gal(a1-3)]Gal = biological target: Fuc(a1-2)[Gal(a1-3)]Gal
# Method in brief: as §1
# [9] = biological target: Fuc(a1-2)[Gal(a1-3)]Gal(b1-3)GalNAc
# Method in brief: as §1
# [10] = biological target: Fuc(a1-2)[Gal(a1-3)]Gal(b1-3)GlcNAc
# Method in brief: as §1
# [11] = biological target: Fuc(a1-2)[Gal(a1-3)]Gal(b1-3)GlcNAc(b1-2)Man(a1-3)[Fuc(a1-2)[Gal(a1-3)]Gal(b1-3)GlcNAc(b1-2)Man(a1-6)]Man(b1-4)GlcNAc(b1-4)GlcNAc
# Method in brief: as §1
# [12] = biological target: Fuc(a1-2)[Gal(a1-3)]Gal(b1-3)GlcNAc(b1-2)Man(a1-3)[Fuc(a1-2)[Gal(a1-3)]Gal(b1-3)GlcNAc(b1-2)Man(a1-6)]Man(b1-4)GlcNAc(b1-4)[Fuc(a1-6)]GlcNAc
# Method in brief: as §1
# [13] = biological target: Fuc(a1-2)[Gal(a1-3)]Gal(b1-3)GlcNAc(b1-3)GalNAc
# Method in brief: as §1
# [14] = biological target: Fuc(a1-2)[Gal(a1-3)]Gal(b1-4)Glc
# Method in brief: as §1
# [15] = biological target: Fuc(a1-2)[Gal(a1-3)]Gal(b1-4)GlcNAc
# Method in brief: as §1
# [16] = biological target: Fuc(a1-2)[Gal(a1-3)]Gal(b1-4)GlcNAc(b1-2)Man(a1-3)[Fuc(a1-2)[Gal(a1-3)]Gal(b1-4)GlcNAc(b1-2)Man(a1-6)]Man(b1-4)GlcNAc(b1-4)GlcNAc
# Method in brief: as §1
# [17] = biological target: Fuc(a1-2)[Gal(a1-3)]Gal(b1-4)GlcNAc(b1-2)Man(a1-3)[Fuc(a1-2)[Gal(a1-3)]Gal(b1-4)GlcNAc(b1-2)Man(a1-6)]Man(b1-4)GlcNAc(b1-4)[Fuc(a1-6)]GlcNAc
# Method in brief: as §1
# [18] = biological target: Fuc(a1-2)[Gal(a1-3)]Gal(b1-4)GlcNAc(b1-3)GalNAc
# Method in brief: as §1
# [19] = biological target: Fuc(a1-2)[Gal(a1-3)]Gal(b1-4)[Fuc(a1-3)]Glc
# Method in brief: as §1
# [20] = biological target: Fuc(a1-2)[Gal(a1-3)]Gal(b1-4)[Fuc(a1-3)]GlcNAc
# Method in brief: as §1
# [21] = biological target: Fuc(a1-2)[Gal(a1-3)]Gal(b1-4)[Fuc(a1-3)]GlcNAc(b1-3)GalNAc
# Method in brief: as §1
# [22] = biological target: Fuc(a1-2)[Gal(a1-4)]Gal(b1-4)GlcNAc
# Method in brief: as §1
# [23] = biological target: Fuc(a1-2)[GalNAc(a1-3)]Gal
# Method in brief: as §1
# [24] = biological target: Fuc(a1-2)[GalNAc(a1-3)]Gal(b1-3)GalNAc(a1-3)[Fuc(a1-2)]Gal(b1-4)GlcNAc
# Method in brief: as §1
# [25] = biological target: Fuc(a1-2)[GalNAc(a1-3)]Gal(b1-3)GlcNAc
# Method in brief: as §1
# [26] = biological target: Fuc(a1-2)[GalNAc(a1-3)]Gal(b1-3)GlcNAc(b1-2)Man(a1-3)[Fuc(a1-2)[GalNAc(a1-3)]Gal(b1-3)GlcNAc(b1-2)Man(a1-6)]Man(b1-4)GlcNAc(b1-4)GlcNAc
# Method in brief: as §1
# [27] = biological target: Fuc(a1-2)[GalNAc(a1-3)]Gal(b1-3)GlcNAc(b1-2)Man(a1-3)[Fuc(a1-2)[GalNAc(a1-3)]Gal(b1-3)GlcNAc(b1-2)Man(a1-6)]Man(b1-4)GlcNAc(b1-4)[Fuc(a1-6)]GlcNAc
# Method in brief: as §1
# [28] = biological target: Fuc(a1-2)[GalNAc(a1-3)]Gal(b1-3)GlcNAc(b1-3)GalNAc
# Method in brief: as §1
binder,measurement,setting,value
B1,glycan array binding signal (z-score),[1],-0.523
same,glycan array binding signal (z-score),[2],0.361
same,glycan array binding signal (z-score),[3],-0.253
same,glycan array binding signal (z-score),[4],-0.137
same,glycan array binding signal (z-score),[5],-0.353
same,glycan array binding signal (z-score),[6],-0.2
same,glycan array binding signal (z-score),Fuc(a1-2)Gal6S(b1-4)Glc,0.242
same,glycan array binding signal (z-score),[7],0.837
same,glycan array binding signal (z-score),[8],-0.327
same,glycan array binding signal (z-score),Fuc(a1-2)[Gal(a1-3)]Gal,-0.178
same,glycan array binding signal (z-score),[9],-0.186
same,glycan array binding signal (z-score),[10],-0.17
same,glycan array binding signal (z-score),[11],-0.422
same,glycan array binding signal (z-score),[12],-0.12
same,glycan array binding signal (z-score),[13],-0.433
same,glycan array binding signal (z-score),[14],0.131
same,glycan array binding signal (z-score),[15],-0.426
same,glycan array binding signal (z-score),[16],-0.315
same,glycan array binding signal (z-score),[17],-0.413
same,glycan array binding signal (z-score),[18],-0.227
same,glycan array binding signal (z-score),[19],0.064
same,glycan array binding signal (z-score),[20],-0.401
same,glycan array binding signal (z-score),[21],-0.404
same,glycan array binding signal (z-score),[22],0.157
same,glycan array binding signal (z-score),[23],0.347
same,glycan array binding signal (z-score),[24],-0.428
same,glycan array binding signal (z-score),[25],-0.385
same,glycan array binding signal (z-score),[26],-0.365
same,glycan array binding signal (z-score),[27],0.46
same,glycan array binding signal (z-score),[28],0.025
